Some of the results follow. The list includes weakly bound sequences.
These sequences were tested against T1, MBP-FoxP3dN (UniProt Q99JB6) (assay: PD-seq (MBP pull-down with sequencing)). Conditions: 20 mM Tris-HCl pH 7.5, 100 mM NaCl, 1.5 mM MgCl2, 0.4 uM protein, 0.1 uM dsDNA library, 30 min, room temperature, amylose pull-down; high values mean tight binding; double strand, one strand shown.
T1 sequence: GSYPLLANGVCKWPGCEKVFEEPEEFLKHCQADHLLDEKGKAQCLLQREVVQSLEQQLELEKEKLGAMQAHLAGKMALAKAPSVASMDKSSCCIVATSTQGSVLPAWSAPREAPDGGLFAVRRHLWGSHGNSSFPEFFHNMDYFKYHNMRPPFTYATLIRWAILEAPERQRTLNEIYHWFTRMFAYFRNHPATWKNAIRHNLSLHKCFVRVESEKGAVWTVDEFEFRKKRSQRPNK
For “GATGATTGTTCTCCCAGCTGATGAATTGCTGCGATCGAGTAAACAAATTTTCCTAATCTTTCTGTTCAAGCGCCATCTAC”, the binding signal (RPM ratio (pull-down/input)) was 0.776. With “GATGATTGTTCTCCCAGCTGATGAATTTCTCATCTCGAGTAAACAAATTTTCCTAATCTTTCTGTTCAAGCGCCATCTAC” the binding signal (RPM ratio (pull-down/input)) was 0.314. “GATGATTGTTCTCCCAGCTGATGAATTCCGCGTATCGAGTAAACAAATTTTCCTAATCTTTCTGTTCAAGCGCCATCTAC” showed a binding signal (RPM ratio (pull-down/input)) of 1.46. Sequence “GATGATTGTTCTCCCAGCTGATGAATTACCACGCTCGAGTAAACAAATTTTCCTAATCTTTCTGTTCAAGCGCCATCTAC” has a binding signal (RPM ratio (pull-down/input)) of 0.466. “GATGATTGTTCTCCCAGCTGATGAATTTGGCTTTTCGAGTAAACAAATTTTCCTAATCTTTCTGTTCAAGCGCCATCTAC” was tested, and the binding signal (RPM ratio (pull-down/input)) was 2.74. Work on “GATGATTGTTCTCCCAGCTGATGAATTCTCTGCGTCGAGTAAACAAATTTTCCTAATCTTTCTGTTCAAGCGCCATCTAC” yielded a binding signal (RPM ratio (pull-down/input)) of 0.356. Work on “GATGATTGTTCTCCCAGCTGATGAATTTCTCTCTTCGAGTAAACAAATTTTCCTAATCTTTCTGTTCAAGCGCCATCTAC” yielded a binding signal (RPM ratio (pull-down/input)) of 0.243. Sequence “GATGATTGTTCTCCCAGCTGATGAATTACGAATATCGAGTAAACAAATTTTCCTAATCTTTCTGTTCAAGCGCCATCTAC” has a binding signal (RPM ratio (pull-down/input)) of 0.595. “GATGATTGTTCTCCCAGCTGATGAATTACTAAAATCGAGTAAACAAATTTTCCTAATCTTTCTGTTCAAGCGCCATCTAC” was tested, and the binding signal (RPM ratio (pull-down/input)) was 0.262. Sequence “GATGATTGTTCTCCCAGCTGATGAATTTAGCTTCTCGAGTAAACAAATTTTCCTAATCTTTCTGTTCAAGCGCCATCTAC” has a binding signal (RPM ratio (pull-down/input)) of 2.24. Work on “GATGATTGTTCTCCCAGCTGATGAATTTTCCAGGTCGAGTAAACAAATTTTCCTAATCTTTCTGTTCAAGCGCCATCTAC” yielded a binding signal (RPM ratio (pull-down/input)) of 0.146. With “GATGATTGTTCTCCCAGCTGATGAATTACCGGTGTCGAGTAAACAAATTTTCCTAATCTTTCTGTTCAAGCGCCATCTAC” the binding signal (RPM ratio (pull-down/input)) was 0.434. With “GATGATTGTTCTCCCAGCTGATGAATTGATGATGTCGAGTAAACAAATTTTCCTAATCTTTCTGTTCAAGCGCCATCTAC” the binding signal (RPM ratio (pull-down/input)) was 1. “GATGATTGTTCTCCCAGCTGATGAATTATCGACATCGAGTAAACAAATTTTCCTAATCTTTCTGTTCAAGCGCCATCTAC” showed a binding signal (RPM ratio (pull-down/input)) of 0.53. For “GATGATTGTTCTCCCAGCTGATGAATTAGTGTATTCGAGTAAACAAATTTTCCTAATCTTTCTGTTCAAGCGCCATCTAC”, the binding signal (RPM ratio (pull-down/input)) was 4.22. Work on “GATGATTGTTCTCCCAGCTGATGAATTGGACGTGTCGAGTAAACAAATTTTCCTAATCTTTCTGTTCAAGCGCCATCTAC” yielded a binding signal (RPM ratio (pull-down/input)) of 0.465. Sequence “GATGATTGTTCTCCCAGCTGATGAATTCTTCCTTTCGAGTAAACAAATTTTCCTAATCTTTCTGTTCAAGCGCCATCTAC” has a binding signal (RPM ratio (pull-down/input)) of 0.205. Work on “GATGATTGTTCTCCCAGCTGATGAATTATTTTTTTCGAGTAAACAAATTTTCCTAATCTTTCTGTTCAAGCGCCATCTAC” yielded a binding signal (RPM ratio (pull-down/input)) of 0.916. Work on “GATGATTGTTCTCCCAGCTGATGAATTAGGATTATCGAGTAAACAAATTTTCCTAATCTTTCTGTTCAAGCGCCATCTAC” yielded a binding signal (RPM ratio (pull-down/input)) of 0.765. For “GATGATTGTTCTCCCAGCTGATGAATTGGAAAACTCGAGTAAACAAATTTTCCTAATCTTTCTGTTCAAGCGCCATCTAC”, the binding signal (RPM ratio (pull-down/input)) was 0.225. For “GATGATTGTTCTCCCAGCTGATGAATTGAACAAGTCGAGTAAACAAATTTTCCTAATCTTTCTGTTCAAGCGCCATCTAC”, the binding signal (RPM ratio (pull-down/input)) was 0.211. Sequence “GATGATTGTTCTCCCAGCTGATGAATTGCATCGTTCGAGTAAACAAATTTTCCTAATCTTTCTGTTCAAGCGCCATCTAC” has a binding signal (RPM ratio (pull-down/input)) of 2.81. Work on “GATGATTGTTCTCCCAGCTGATGAATTTTAAGACTCGAGTAAACAAATTTTCCTAATCTTTCTGTTCAAGCGCCATCTAC” yielded a binding signal (RPM ratio (pull-down/input)) of 0.275. Sequence “GATGATTGTTCTCCCAGCTGATGAATTTACGATTTCGAGTAAACAAATTTTCCTAATCTTTCTGTTCAAGCGCCATCTAC” has a binding signal (RPM ratio (pull-down/input)) of 0.566. “GATGATTGTTCTCCCAGCTGATGAATTGCCTTAGTCGAGTAAACAAATTTTCCTAATCTTTCTGTTCAAGCGCCATCTAC” gave a binding signal (RPM ratio (pull-down/input)) of 0.544. “GATGATTGTTCTCCCAGCTGATGAATTGTACACGTCGAGTAAACAAATTTTCCTAATCTTTCTGTTCAAGCGCCATCTAC” showed a binding signal (RPM ratio (pull-down/input)) of 0.656. For “GATGATTGTTCTCCCAGCTGATGAATTACCCAATTCGAGTAAACAAATTTTCCTAATCTTTCTGTTCAAGCGCCATCTAC”, the binding signal (RPM ratio (pull-down/input)) was 0.295. Work on “GATGATTGTTCTCCCAGCTGATGAATTACGCTGTTCGAGTAAACAAATTTTCCTAATCTTTCTGTTCAAGCGCCATCTAC” yielded a binding signal (RPM ratio (pull-down/input)) of 1.09. “GATGATTGTTCTCCCAGCTGATGAATTTACCATTTCGAGTAAACAAATTTTCCTAATCTTTCTGTTCAAGCGCCATCTAC” gave a binding signal (RPM ratio (pull-down/input)) of 0.541. “GATGATTGTTCTCCCAGCTGATGAATTTGATAGGTCGAGTAAACAAATTTTCCTAATCTTTCTGTTCAAGCGCCATCTAC” gave a binding signal (RPM ratio (pull-down/input)) of 1.41. Sequence “GATGATTGTTCTCCCAGCTGATGAATTCACAAGGTCGAGTAAACAAATTTTCCTAATCTTTCTGTTCAAGCGCCATCTAC” has a binding signal (RPM ratio (pull-down/input)) of 0.221. “GATGATTGTTCTCCCAGCTGATGAATTGGTATTATCGAGTAAACAAATTTTCCTAATCTTTCTGTTCAAGCGCCATCTAC” was tested, and the binding signal (RPM ratio (pull-down/input)) was 1.58.
